The results in this text go back to publication PMC9911399, “Two distinct binding modes provide the RNA-binding protein RbFox with extraordinary sequence specificity”.

Changes are numbered by the printed parent chain; changes in the protein carry UniProt numbers. The list shows a part of the results.

T1: RBFOX1 RRM RbFoxmut (Fox-RRM*) (Homo sapiens, UniProt Q9NWB1 109-208, R118D;E147R;N151S;E152T)
T1 sequence: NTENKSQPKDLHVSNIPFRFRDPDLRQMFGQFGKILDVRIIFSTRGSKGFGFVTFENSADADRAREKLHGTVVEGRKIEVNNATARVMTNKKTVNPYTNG

B1: CGAGCGC (DNA:RNA)
RNA: GGGAGACCGGAAUUCAGAUUGUCCCGAGCGCUUAAAUCCCGUCGUAGCCACCA
DNA 1: CAATCTGAATTCCGGTCTCCC
DNA 2: TGGTGGCTACGACGGGATT
B2: AGAGUUG (DNA:RNA)
RNA: B1 RNA with C25A, C29U, G30U, C31G
DNA 1: CAATCTGAATTCCGGTCTCCC
DNA 2: TGGTGGCTACGACGGGATT
B3: AGAUCGU (DNA:RNA)
RNA: B1 RNA with C25A, G28U, C31U
DNA 1: CAATCTGAATTCCGGTCTCCC
DNA 2: TGGTGGCTACGACGGGATT
B4: AUAGUUU (DNA:RNA)
RNA: B1 RNA with C25A, G26U, C29U, G30U, C31U
DNA 1: CAATCTGAATTCCGGTCTCCC
DNA 2: TGGTGGCTACGACGGGATT
B5: CUUCUAU (DNA:RNA)
RNA: B1 RNA with G26U, A27U, G28C, C29U, G30A, C31U
DNA 1: CAATCTGAATTCCGGTCTCCC
DNA 2: TGGTGGCTACGACGGGATT
B6: AUCACAA (DNA:RNA)
RNA: B1 RNA with C25A, G26U, A27C, G28A, G30A, C31A
DNA 1: CAATCTGAATTCCGGTCTCCC
DNA 2: TGGTGGCTACGACGGGATT
B7: UUCGCGG (DNA:RNA)
RNA: B1 RNA with C25U, G26U, A27C, C31G
DNA 1: CAATCTGAATTCCGGTCTCCC
DNA 2: TGGTGGCTACGACGGGATT
B8: AAAGAUA (DNA:RNA)
RNA: B1 RNA with C25A, G26A, C29A, G30U, C31A
DNA 1: CAATCTGAATTCCGGTCTCCC
DNA 2: TGGTGGCTACGACGGGATT
B9: GAGCUGA (DNA:RNA)
RNA: B1 RNA with C25G, G26A, A27G, G28C, C29U, C31A
DNA 1: CAATCTGAATTCCGGTCTCCC
DNA 2: TGGTGGCTACGACGGGATT
B10: UCUGUAU (DNA:RNA)
RNA: B1 RNA with C25U, G26C, A27U, C29U, G30A, C31U
DNA 1: CAATCTGAATTCCGGTCTCCC
DNA 2: TGGTGGCTACGACGGGATT
B11: AUUUGCA (DNA:RNA)
RNA: GGGAGACCGGAAUUCAGAUUGUCCAUUUGCAUUAAAUCCCGUCGUAGCCACCA
DNA 1: CAATCTGAATTCCGGTCTCCC
DNA 2: TGGTGGCTACGACGGGATT
B12: UCCGUGU (DNA:RNA)
RNA: B1 RNA with C25U, G26C, A27C, C29U, C31U
DNA 1: CAATCTGAATTCCGGTCTCCC
DNA 2: TGGTGGCTACGACGGGATT
B13: AGCGUAG (DNA:RNA)
RNA: B1 RNA with C25A, A27C, C29U, G30A, C31G
DNA 1: CAATCTGAATTCCGGTCTCCC
DNA 2: TGGTGGCTACGACGGGATT
B14: GCGCUAA (DNA:RNA)
RNA: B11 RNA with A25G, U26C, U27G, U28C, G29U, C30A
DNA 1: CAATCTGAATTCCGGTCTCCC
DNA 2: TGGTGGCTACGACGGGATT
B15: GGGUUUU (DNA:RNA)
RNA: B11 RNA with A25G, U26G, U27G, G29U, C30U, A31U
DNA 1: CAATCTGAATTCCGGTCTCCC
DNA 2: TGGTGGCTACGACGGGATT
B16: UAUCGUA (DNA:RNA)
RNA: B11 RNA with A25U, U26A, U28C, C30U
DNA 1: CAATCTGAATTCCGGTCTCCC
DNA 2: TGGTGGCTACGACGGGATT
B17: UCAUGAG (DNA:RNA)
RNA: B11 RNA with A25U, U26C, U27A, C30A, A31G
DNA 1: CAATCTGAATTCCGGTCTCCC
DNA 2: TGGTGGCTACGACGGGATT
B18: UCAGAGU (DNA:RNA)
RNA: B1 RNA with C25U, G26C, C29A, C31U
DNA 1: CAATCTGAATTCCGGTCTCCC
DNA 2: TGGTGGCTACGACGGGATT
B19: CGGAAAU (DNA:RNA)
RNA: B1 RNA with A27G, G28A, C29A, G30A, C31U
DNA 1: CAATCTGAATTCCGGTCTCCC
DNA 2: TGGTGGCTACGACGGGATT
B20: CCUUGGG (DNA:RNA)
RNA: B11 RNA with A25C, U26C, C30G, A31G
DNA 1: CAATCTGAATTCCGGTCTCCC
DNA 2: TGGTGGCTACGACGGGATT
B21: AGCGUUG (DNA:RNA)
RNA: B1 RNA with C25A, A27C, C29U, G30U, C31G
DNA 1: CAATCTGAATTCCGGTCTCCC
DNA 2: TGGTGGCTACGACGGGATT
B22: AGACACU (DNA:RNA)
RNA: B11 RNA with U26G, U27A, U28C, G29A, A31U
DNA 1: CAATCTGAATTCCGGTCTCCC
DNA 2: TGGTGGCTACGACGGGATT
B23: UGUCUUA (DNA:RNA)
RNA: B11 RNA with A25U, U26G, U28C, G29U, C30U
DNA 1: CAATCTGAATTCCGGTCTCCC
DNA 2: TGGTGGCTACGACGGGATT
B24: ACCUGGU (DNA:RNA)
RNA: B11 RNA with U26C, U27C, C30G, A31U
DNA 1: CAATCTGAATTCCGGTCTCCC
DNA 2: TGGTGGCTACGACGGGATT
B25: CAUACGG (DNA:RNA)
RNA: B1 RNA with G26A, A27U, G28A, C31G
DNA 1: CAATCTGAATTCCGGTCTCCC
DNA 2: TGGTGGCTACGACGGGATT
B26: AUUGCGA (DNA:RNA)
RNA: B11 RNA with U28G, G29C, C30G
DNA 1: CAATCTGAATTCCGGTCTCCC
DNA 2: TGGTGGCTACGACGGGATT
B27: UUUAUGG (DNA:RNA)
RNA: B11 RNA with A25U, U28A, G29U, C30G, A31G
DNA 1: CAATCTGAATTCCGGTCTCCC
DNA 2: TGGTGGCTACGACGGGATT
B28: AUAGCGG (DNA:RNA)
RNA: B1 RNA with C25A, G26U, C31G
DNA 1: CAATCTGAATTCCGGTCTCCC
DNA 2: TGGTGGCTACGACGGGATT
B29: GGGCGGG (DNA:RNA)
RNA: B1 RNA with C25G, A27G, G28C, C29G, C31G
DNA 1: CAATCTGAATTCCGGTCTCCC
DNA 2: TGGTGGCTACGACGGGATT
B30: AACAGUA (DNA:RNA)
RNA: B11 RNA with U26A, U27C, U28A, C30U
DNA 1: CAATCTGAATTCCGGTCTCCC
DNA 2: TGGTGGCTACGACGGGATT
B31: AGUUGUA (DNA:RNA)
RNA: B11 RNA with U26G, C30U
DNA 1: CAATCTGAATTCCGGTCTCCC
DNA 2: TGGTGGCTACGACGGGATT

The assay addresses T1, RBFOX1 RRM RbFoxmut (Fox-RRM*). Briefly: EMSA; HiTS-Eq, 1 nM pool, 10 min; buffer printed only for the single-RNA assays: 10 mM Tris pH 7.5, 150 mM NaCl, 3.4 mM EDTA, 0.001% NP-40, 30 C. Particulars: tags: His6 N-terminal (pET28a); label: 5' 32P. The procedure, abridged:
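Purified RbFox RRM (wild type or mutant) was equilibrated for 10 min in 50 µL with 1 nM of a 5′-radiolabelled pool of RNA with 7 randomized nucleotides, its flanks annealed to DNA oligonucleotides, across increasing protein concentrations. Free RNA was separated by 8% native PAGE, excised, reverse-transcribed, PCR-barcoded and sequenced on an Illumina HiSeq 2500. Relative association constants came from read-count changes of each variant against the control reaction, normalised to the cognate motif.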
A general note: A gel shift assay detects complexes by their altered migration in electrophoresis.
Consider B1, for which the binding signal was 0.103 KA relative to UGCAUGU.
As to B2, the binding signal is 0.163 KA relative to UGCAUGU.
As for B3, the binding signal is 0.105 KA relative to UGCAUGU.
Turning to B4, the binding signal is 0.135 KA relative to UGCAUGU.
The same measure for B5: 0.121 KA relative to UGCAUGU.
In the case of B6, the binding signal was 0.0834 KA relative to UGCAUGU.
To B7 belongs 0.0745 KA relative to UGCAUGU; to B8, 0.0943 KA relative to UGCAUGU.
The same measure for B9: 0.075 KA relative to UGCAUGU; for B10: 0.154 KA relative to UGCAUGU; for B11: 0.239 KA relative to UGCAUGU.
To B12 belongs 0.119 KA relative to UGCAUGU; to B13, 0.162 KA relative to UGCAUGU.
In the case of B14, the binding signal was 0.0854 KA relative to UGCAUGU.
To B15 belongs 0.0749 KA relative to UGCAUGU.
To B16 belongs 0.123 KA relative to UGCAUGU; to B17, 0.119 KA relative to UGCAUGU.
To B18 belongs 0.141 KA relative to UGCAUGU; to B19, 0.0824 KA relative to UGCAUGU; to B20, 0.0748 KA relative to UGCAUGU.
For B21, the binding signal was 0.202 KA relative to UGCAUGU.
The same measure for B22: 0.0461 KA relative to UGCAUGU; for B23: 0.132 KA relative to UGCAUGU; for B24: 0.118 KA relative to UGCAUGU.
To B25 belongs 0.101 KA relative to UGCAUGU; to B26, 0.0788 KA relative to UGCAUGU.
For B27, the binding signal was 0.0799 KA relative to UGCAUGU.
In the case of B28, the binding signal was 0.0919 KA relative to UGCAUGU.
Turning to B29, the binding signal was 0.101 KA relative to UGCAUGU.
The same measure for B30: 0.0891 KA relative to UGCAUGU; for B31: 0.2 KA relative to UGCAUGU.
